# In all, about 150,000 compounds went through this assay and about 540 (0.36%) showed an effect of 50% or more. This is one part of the list.
# Test system: Plasmodium falciparum
# Assay: Primary screen in NF54 nanoGlo assay, in single point, at 2uM, 72h; a lower Z score goes with more inhibition
# Format: functional, Erythrocyte
# Settings: timepoint 72 hour
Structure (SMILES),% Inhibition,Z score
N#Cc1c(F)cccc1OC[C@H]1C[C@@H](O)C1,-11%,1.53
COc1cnc(NC(=O)NC[C@@H](C)CCO)nc1,-10%,1.4
CC1(C)CCCN(C(=O)c2csc(NC(=O)c3cccc(C(F)(F)F)c3)n2)C1,6%,-0.95
CCc1nc(CN(C)c2nc(N)nc3ccc(C(=O)O)cc23)no1,13%,-1.24
CC(C)(C)c1cc(NS(=O)(=O)c2ccc3c(c2)C(=O)NCC3)[nH]n1,4%,-0.57
COCc1n[nH]c(-c2cnc3ccc(F)cc3c2)n1,6%,-1.09
Cc1ccc2cc1Oc1cccc(c1)CO[C@H]1CN(c3cc(N(C)C)ncn3)C[C@@H]1NC(=O)CN(C)C2=O,-3%,0.52
CC(C)NC(=O)CN(C)Cc1noc(C(C)(C)C)n1,8%,-1.1
COCCCOC1CN(c2cccc(C#N)n2)C1,-12%,1.49
Cc1nonc1NC(=O)COc1c(F)c(F)c(F)c(F)c1F,-14%,1.58
O[C@H]1CCCN(Cc2cc3c(cc2Br)OCCCO3)C1,-7%,0.88
Cc1[nH]c2ncnc(NC(=O)C3CCC(F)(F)CC3)c2c1C,-10%,1
Cc1cc(-n2cnnn2)cc(NC(=O)NCCc2ncnn2C)c1C,-11%,2.04
CCCCN(CC)C(=O)c1ccc(Cl)cc1Cl,5%,-0.71
COC(=O)N[C@@H](C)C(=O)N1CCc2n[nH]cc2C1,-18%,1.59
CN(Cc1cscn1)C(=O)CN1CCCCCC1=O,-3%,0.37
Cc1nn(C)c(C)c1CN(C)c1nccnc1C#N,-10%,1.48
O=C(CNS(=O)(=O)N1CCc2ccccc2C1)N1CCCCC1,-6%,0.83
CCc1nccn1C1CCCN(C(C)c2nc(C)cc(O)n2)C1 (stereo not drawn),-15%,1.29
CN(C)C(=O)CN1C(=O)[C@@H]2CC[C@H]1CN(C(=O)c1ccc(F)cc1Cl)C2,-2%,0.28
O=C(Cc1c(F)cccc1Cl)N1CC(COc2ccc3c(c2)OCO3)C1,6%,-0.86

Structure (SMILES),% Inhibition,Z score
CC1(C)[C@H]2CC[C@]1(C)[C@H](OC(=O)C1CCCN(C(N)=O)C1)C2 (stereo partly drawn),-16%,1.43
CC1CCCCN1C(=O)C1CC(=O)c2sc(NC(=O)C3CCC3)nc2C1 (stereo not drawn),-6%,0.85
Cc1ccc(=O)n(CC(=O)N2CCC[C@H](CCc3ccc(F)cc3F)C2)n1,-14%,2.17
CCCCOc1ccc(C)cc1-c1nc(C)nc2c1cnn2C,-9%,1.67
Cc1cc(=O)c(CO)nn1CC(=O)N(C(C)C)C(C)C,-8%,1.58
Cc1nn(C(C)(C)C)cc1C(=O)N1CCN(C)[C@]2(CCOC2)C1,-4%,0.6
CN(CCCc1nccn1C)c1cc(N2CCCC2)nc(N)n1,-14%,2.64
CC(C)Oc1ccc([C@@]2(C)NC(=O)NC2=O)cc1,-3%,0.55
CC(=O)N1CCCc2cc(NCc3ccc(CO)o3)ccc21,-17%,2.04
O=c1cc(-c2ccccc2)cc(-c2ccccc2)n1Cc1ccccc1,8%,-1.24
O=C(NCCCn1cccn1)c1cn2c(n1)C(=O)N[C@H](c1ccc(F)cc1)C2,0%,-0.04
CC(C)CNC(=O)CCN(c1nc(-c2ccco2)nc2ccccc12)C1CCCCC1,0%,0
Cc1nn(CCC(=O)N2CCN(C)[C@H](c3ccccc3)C2)c(C)c1C,1%,-0.16
NC(=O)Nc1cc(Cl)c(Cl)cc1F,-2%,0.23
O=C(Cc1c(Cl)cccc1Cl)N1CCC[C@H]1c1nnn[nH]1,-6%,0.8
C=CCn1c(=O)c2sc(N(CC)CC)nc2n(CC(=O)Nc2ccc(CC)cc2)c1=O,-30%,2.68
CCc1cnc(C)nc1N1CCC[C@@]2(CCC(=O)N(Cc3ccccn3)C2)C1,-14%,1.85
O=C(O)[C@H]1CCCCN1C(=O)c1coc2ccccc12,-16%,2.2
COc1cccc(-c2nc(CCn3c(C)cc(=O)cc3O)no2)c1OC,-12%,2.29
Cc1cc(CS(=O)(=O)[C@@H](C)C(=O)N2CCCc3ccccc32)no1,0%,-0.03
Cc1c(NC(=O)c2cc3nc(-c4ccc(Cl)c(Cl)c4)cc(C(F)(F)F)n3n2)c(=O)n(-c2ccccc2)n1C,29%,-3.23

Structure (SMILES),% Inhibition,Z score
COc1cc(NS(=O)(=O)c2ccccc2F)ccc1N1CCCCC1=O,-16%,2.43
Clc1ccc([C@@H]2CN(Cc3ccc(-c4cc[nH]n4)s3)CCO2)cc1,-19%,2.55
Cc1cnc(-c2ccc(C(=O)N[C@@H](C)Cc3cnccn3)cc2)nc1N(C)C,-4%,0.74
Cc1nn(-c2ccc(Cl)cc2)cc1-c1noc(C(=O)NCCc2ccccc2)n1,-12%,1.48
CC1=NS(=O)(=O)N(C)C=C1C(=O)OCc1ccccc1,-12%,2.33
COc1cccc(-n2c(=O)n(C3CCCC3)c(=O)c3c2ncn3Cc2cccc(F)c2)c1,-13%,1.5
COCC(C)(C)C(=O)NCc1nc(C(F)(F)F)c[nH]1,-5%,0.86
Nc1ncccc1CN1CCN(C(=O)N2CCCC2)C[C@@H](O)C1,-7%,1.21
Cc1ccc(-c2nccc(Nc3ccc(C(=O)Nc4ccc5c(c4)OCCO5)cc3)n2)cc1,0%,0.03
Cc1nnc(CNC(=O)c2ccc(CN3CCC(C)CC3)o2)s1,-5%,1.06
C[C@H]1CCC(=O)N1c1ccc(NC(=O)c2cc(-c3cccs3)nn2C)cc1,7%,-1.08
COc1ccc(S(=O)(=O)N(C)c2ccnc(C(=O)NCc3cccnc3)c2)cc1,-13%,2.12
Cc1ccc(CN2CC[C@@](C)(O)[C@H](N3CCCC3)C2)o1,-10%,1.27
CNc1nc2c(c(C(=O)N3CCCC3)n1)CN(C(=O)CCc1ccnn1C)CC2,-4%,0.69
Cn1cc(Cl)c(C(=O)NC(C)(C)CN2CCCCCC2)n1,-8%,1.07
COc1cc(C2CN(C(=O)Cc3ccccc3)CC2C(=O)NCC(C)C)cc(OC)c1OC (stereo not drawn),-1%,0.18
N#Cc1cc(Br)ccc1S(=O)(=O)N1CC2CCC1C2 (stereo not drawn),-4%,0.66
CC(C)(C)CN(CCS(C)(=O)=O)Cc1ccccc1,-5%,0.44
O=C1Nc2ccccc2S(=O)(=O)N1CC#Cc1ccc(Cl)cc1,0%,0.05
CC1CC(NC(=O)N2Cc3cc(F)c(F)cc3C2)CN1C1CC1 (stereo not drawn),8%,-1.49
COc1cc(-c2cnc3ccccc3c2)cc2c1OCCN(c1cc(N)ncn1)C2,1%,-0.09

Structure (SMILES),% Inhibition,Z score
NC(=O)C1CCN(c2ccc(NC(=O)CC3CC4CCC3C4)cc2)CC1 (stereo not drawn),-8%,1.11
CCc1nn(C)c(CC)c1CN1CC[C@H](C(=O)N(C)C)C1,-4%,0.55
C=CCCc1ccccc1NC(=O)N1C[C@H]2[C@H](OC)CS(=O)(=O)[C@H]2C1,-4%,0.41
C[C@H]1CC[C@@](C)(CNC(=O)Nc2cn(C)nc2C2CC2)C1(C)C,2%,-0.25
Cn1cc([C@H]2N(C(=O)c3cc4cnccc4[nH]3)CC2(C)C)cn1,-3%,0.4
Cc1ncn(Cc2cc(-c3ccccc3)on2)c(=O)c1C,-1%,0.16
O=C(O)c1ccc(S(=O)(=O)N2CCc3ccccc3CC2)c(F)c1,26%,-2.94
C[C@H](C#N)CN(C)CC(=O)N1CCC(c2ccccc2)=N1,-1%,0.07
CNc1nc(C)cc(N2CC[C@H]3[C@H](CCC(=O)N3CCc3ccccc3)C2)n1,3%,-0.53
Cc1nnc(CN2CCO[C@@H](CC(C)C)C2)s1,1%,-0.15
Cc1nc([C@H](C)NCc2ccc(-c3cccc(Cl)c3Cl)o2)n[nH]1,-6%,0.79
COc1cnc(C(=O)NC[C@H]2COCCO2)nc1,-6%,1.16
CS(=O)(=O)N1CCC(NC(=O)c2ccc(Oc3ccccc3)cc2)CC1,-2%,0.36
Nc1ccc(-c2ccc(NC3CCCC3)nn2)cn1,-16%,1.48
O=C(Nc1ccc(Br)cc1)c1ccc2c(-c3ccccc3)onc2c1,11%,-1.05
O=C(O)CCN(C(=O)CCc1ccc(Cl)cc1Cl)C1CCOCC1,-10%,1.38
CCOc1ccccc1NC(=O)N(CC(=O)N(CCc1ccccc1)Cc1ccco1)C(C)C,-10%,1.42
Nc1cccc(C(=O)N[C@H]2CCOC3(CCOCC3)C2)n1,14%,-1.94
O=C(c1ccccn1)N1CC[C@H](Nc2ncc(C(F)(F)F)cc2Cl)[C@@H](O)C1,-9%,1.14
Cc1cc(C(=O)N2CCC2)c(C)n1-c1ccc2c(c1)OCCO2,-9%,1.75
COC[C@@H]1[C@H](C(=O)Nc2ccc3c(c2)N(C)CCC3)CCC(=O)N1C,-13%,1.52
